# Measurements taken from the RNAGym collection of RNA variant scans (doi:10.1101/gad.245936.114).
# Variants at the floor of the assay are shown more often than the library holds them.
# B1: tRNA (parent)
# chain: CUCUCGGUAGCCAAGUUGGUUUAAGGCGCAAGACUUUAAUUUAUCACUACGAAAUCUUGAGAUCGGGCGUUCGACUCGCCCCCGGGAGAUUUUUUCCUCGAGCAA
# Variants of: B1
# Assay: nonsense suppression (GFP-seq) (ratio to wild type); higher = more function; SUP4oc tRNA, yeast GFP reporter sort-seq
# Summary of the method: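 Each variant's nonsense suppression (GFPSEQ) is a cell-share-weighted bin median GFP/RFP relative to the unmutated parent tRNA. Yeast with genome-integrated tRNA variants from a ~3% random-mutation library, a galactose-driven GFP ochre reporter and RFP were grown in raffinose/galactose medium with 80 mg/L adenine, then sorted into GFP/RFP bins for Illumina sequencing. Variants needed ≥100 reads and ≥30 cells.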
row,Variant,nonsense suppression
1,C27U G28A A33U C80A,≤ 0.026
2,C27U U35A U58A G65A G78C,≤ 0.026
3,G25U U57G G84A A87G A89C,≤ 0.026
4,G26C G67A,≤ 0.026
5,C27G G65C G86C,≤ 0.026
6,C27U G67A,≤ 0.026
7,C27G C80U C83A,≤ 0.026
8,C27A U57A,≤ 0.026
9,C27G U57A,≤ 0.026
10,C27A G59C U70A U71A,≤ 0.026
11,G26A G59A G73U,≤ 0.026
12,G26U A31G G65C G86A,≤ 0.026
13,C27A U55A A60G G66C,≤ 0.026
14,G26C G73U G84U,≤ 0.026
15,C27A A33U A60U,≤ 0.026
16,G26C A62G C83U,≤ 0.026
17,G26U A74C C82G,≤ 0.026
18,C27A G59A,≤ 0.026
19,G25U G67C G86U,≤ 0.026
20,C27G C75A,≤ 0.026
21,G26A C56U G73A,≤ 0.026
22,C27G G28A,≤ 0.026
23,C27A A31G,≤ 0.026
24,C27A G28U A60C G73U,≤ 0.026

row,Variant,nonsense suppression
1,C27A C75U,≤ 0.026
2,C27G G78A,≤ 0.026
3,G25U G67A C72A,≤ 0.026
4,G26C G78C,≤ 0.026
5,G26A G67C,≤ 0.026
6,G26C U35C U58A,≤ 0.026
7,G26U U35A A62C U63C,≤ 0.026
8,C27G C77U,≤ 0.026
9,G26C C34A C68G,≤ 0.026
10,G26U A62C,≤ 0.026
11,G26C U55A,≤ 0.026
12,G26A C79U G88A,≤ 0.026
13,G26C C83A,≤ 0.026
14,G26A G59C C72U,≤ 0.026
15,G26U C27G U63G,≤ 0.026
16,C27U G28C G66U,≤ 0.026
17,C27U G32A,≤ 0.026
18,G26A A62U C82G,≤ 0.026
19,C27G A33U C68A,≤ 0.026
20,C27G A31U G88U,≤ 0.026
21,G26C C56U U63C,≤ 0.026
22,C27G A33U,≤ 0.026
23,G25U G28U C29G C72G C81A,≤ 0.026
24,C27A G85C,≤ 0.026

row,Variant,nonsense suppression
1,G26U U55A,≤ 0.026
2,G26C U71A A89C,≤ 0.026
3,G25U G61U U71C,≤ 0.026
4,C27A C29A U71C C79U,≤ 0.026
5,G26A C27G G59U A60U G85A,≤ 0.026
6,G26C C72G,≤ 0.026
7,G26A U55C G66C,≤ 0.026
8,G25U G73U,≤ 0.026
9,C27G G73C,≤ 0.026
10,G26A C79A A89C,≤ 0.026
11,C27G A60C C64A,≤ 0.026
12,G26C A31G A62C C80U,≤ 0.026
13,C27G U71A,≤ 0.026
14,G26C A30C C81U,≤ 0.026
15,G26U U70C U71G,≤ 0.026
16,G26A G86U,≤ 0.026
17,G26C C68A G86U,≤ 0.026
18,G26C C68G,≤ 0.026
19,C27U G88U,≤ 0.026
20,G25U U58G C68G,≤ 0.026
21,G26U A62U G66C,≤ 0.026
22,G26A G59A U63C,≤ 0.026
23,G26C C29A G84A G85A,≤ 0.026
24,G26A C34U C56U,≤ 0.026

row,Variant,nonsense suppression
1,C27G G65U,≤ 0.026
2,C27G G65C,≤ 0.026
3,C27A C79A C82G,≤ 0.026
4,C27U A33U,≤ 0.026
5,C27U A33C,≤ 0.026
6,C27G G61U C80U,≤ 0.026
7,C27U A33G G69C G86U,≤ 0.026
8,G26U A31C G65C,≤ 0.026
9,G25U G84C,≤ 0.026
10,G25U G84A,≤ 0.026
11,G26C G73U,≤ 0.026
12,G26U C80G,≤ 0.026
13,G26C A33G,≤ 0.026
14,G25U A74C,≤ 0.026
15,G25U A74G,≤ 0.026
16,G26C G32C U57C,≤ 0.026
17,G26C A89U,≤ 0.026
18,G26C A89C,≤ 0.026
19,G26U C56G A62U,≤ 0.026
20,G26C A31C G73U A74U,≤ 0.026
21,G26C C34G A62C G66C,≤ 0.026
22,C27U A30U G85C,≤ 0.026
23,C27G U57C G73C,≤ 0.026
24,G25U G26U,≤ 0.026

row,Variant,nonsense suppression
1,C27A G59U G73C,≤ 0.026
2,G25U U70C C72U G85C,≤ 0.026
3,G26A U63C U70A,≤ 0.026
4,C27G U57A G84U,≤ 0.026
5,G26A A31G,≤ 0.026
6,C27A G59U C64G,≤ 0.026
7,C27U C34A U35C G66U,≤ 0.026
8,C27G U57C U58G G66A C68G,≤ 0.026
9,C27U C77G,≤ 0.026
10,C27U C77A,≤ 0.026
11,C27U G28A,0.0265
12,C27G C56A,≤ 0.026
13,G26U C27G,≤ 0.026
14,C27G A31G U70G,≤ 0.026
15,G26A A60U,≤ 0.026
16,C27U G69U,≤ 0.026
17,C27U G69C,≤ 0.026
18,C27U G28U G32U C34U U70G G78C,≤ 0.026
19,C27U C80U,0.0446
20,C27G G61U,≤ 0.026
21,C27A C29U,≤ 0.026
22,G26C G59A,≤ 0.026
23,G26U U71A,≤ 0.026
24,G26U U71G,≤ 0.026

row,Variant,nonsense suppression
1,G26U G84C,≤ 0.026
2,G26U C64G G67C G78A,≤ 0.026
3,G26U A31C C34U,≤ 0.026
4,G26A G59U G66A,≤ 0.026
5,G26A G61U,≤ 0.026
6,G25U C27G U71C,≤ 0.026
7,C27G U63C U71C,≤ 0.026
8,C27U G69C G78A,≤ 0.026
9,G26U A33U,≤ 0.026
10,G26U A33C,≤ 0.026
11,G26U A33G,≤ 0.026
12,G25U A87U,≤ 0.026
13,G25U A87C,≤ 0.026
14,G25U C34G G66U,≤ 0.026
15,C27A G67A G85C,≤ 0.026
16,C27U C29G A30C C81A A89U,≤ 0.026
17,C27G G28U G78U,≤ 0.026
18,G26A G28U A33G G59U,≤ 0.026
19,G26C A87G,≤ 0.026
20,G26C C68A U76G G88C,≤ 0.026
21,C27A G28C A31G C79A,≤ 0.026
22,C27U C56U U70C,≤ 0.026
23,G26A U55A,≤ 0.026
24,G25U C64A C80U,≤ 0.026

row,Variant,nonsense suppression
1,C27U A33G G66A C82U,≤ 0.026
2,G26U U70C,≤ 0.026
3,C27G C64A G66C,≤ 0.026
4,G26U U58C G59U,≤ 0.026
5,C27A C64A U76A,≤ 0.026
6,C27G U35G C64A C82U,≤ 0.026
7,C27U G84C,≤ 0.026
8,C27U G59A G69U G73C C77U G78U,≤ 0.026
9,G26U G59U A62C G67A C83G,≤ 0.026
10,G26U G59U A62C G67A C83U,≤ 0.026
11,C27G C56A C79A C83A,≤ 0.026
12,C27G C34G G65U A89G,≤ 0.026
13,G26A G67A A74G,≤ 0.026
14,C27G G88A,≤ 0.026
15,C27A U55A G61C U63A U76C,≤ 0.026
16,G26C A30G G69C G84A,≤ 0.026
17,C27G A30U A62C C72G C79A,≤ 0.026
18,C27G C29G A33U,≤ 0.026
19,C27U A31G U63C,≤ 0.026
20,G26U G66A G78A A87C,≤ 0.026
21,G26C C29A C82A,≤ 0.026
22,G26A G88A,≤ 0.026
23,C27G A31G,≤ 0.026
